The whole screen tested about 45,000 compounds, of which about 65 (0.1%) were called active. Calls follow the shape of the dose curve; as a rule, active = well fitted activation curve with a large enough effect; inconclusive = small, poorly fitted or top-dose-only effect; inactive = no such curve, though single readings can be large or run the other way. The list shows a part of the results.
Molecular target: Galactocerebrosidase (Homo sapiens) (UniProt P54803)
Assay: A Novel Cell-Based Assay to Identify Small Molecules for B -Galactocerebrosidase; also: 0% is about no effect; nearly all actives have a fitted effect of over 65% in size
Details: 145M-Twi-hGALC-G270D cells (Twitcher mouse brain line with human GALC G270D), HMU-beta-Gal fluorescence, 48 h; series mostly up to 57.5 µM; activation: at the top concentration
Summary of the method: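 Fluorogenic HMU-b-Gal hydrolysis (0.1 mM final, pH 5.2 citrate-phosphate with 1 mg/mL sodium taurocholate; carbonate stop buffer) measures mutant GALC activity after compound treatment of live 145M-Twi Twitcher brain cells stably carrying human GALC-G270D, with wild-type GALC line alongside; activation sought.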

Sequence of UniProt P54803 (P54803 whole entry, looked up): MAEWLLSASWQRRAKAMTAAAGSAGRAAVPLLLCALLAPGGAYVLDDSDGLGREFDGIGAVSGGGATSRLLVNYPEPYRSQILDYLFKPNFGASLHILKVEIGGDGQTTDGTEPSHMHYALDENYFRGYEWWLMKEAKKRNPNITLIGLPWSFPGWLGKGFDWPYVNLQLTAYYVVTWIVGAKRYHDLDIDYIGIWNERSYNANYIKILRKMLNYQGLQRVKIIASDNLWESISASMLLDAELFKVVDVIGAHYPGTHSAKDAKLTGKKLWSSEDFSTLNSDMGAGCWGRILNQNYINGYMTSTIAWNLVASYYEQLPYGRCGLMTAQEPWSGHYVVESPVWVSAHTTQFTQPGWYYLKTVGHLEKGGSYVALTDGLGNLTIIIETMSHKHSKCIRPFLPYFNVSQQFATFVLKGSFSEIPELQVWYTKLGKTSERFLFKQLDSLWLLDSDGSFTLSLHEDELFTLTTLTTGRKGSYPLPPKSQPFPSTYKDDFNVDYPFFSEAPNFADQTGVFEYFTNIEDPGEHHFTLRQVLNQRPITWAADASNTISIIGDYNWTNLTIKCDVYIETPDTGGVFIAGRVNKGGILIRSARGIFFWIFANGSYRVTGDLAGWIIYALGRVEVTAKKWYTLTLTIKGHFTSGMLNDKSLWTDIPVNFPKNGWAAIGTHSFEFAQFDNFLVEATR

activation, inactive:
COc1ccccc1N1CCN(CCC(=O)Nc2cccc(F)c2)CC1 0.0877%
CCOc1ccc(CNC(=O)c2cnc(SC)nc2CC)cc1 -6.75%
O=C(Cn1c(=O)n(-c2ccccc2)c(=O)c2ccc(C(=O)NCc3ccc4c(c3)OCO4)cc21)Nc1ccc(Br)cc1F -13.2%
CCOc1ccc(NC(=O)CSc2oc(-c3cccs3)nc2S(=O)(=O)c2ccc(Cl)cc2)cc1 -17%
CCCCSCCCNC(=O)CN1C(=O)COc2ccc(S(=O)(=O)N3CCCC3)cc21 -10.8%
COc1ccc(CNc2nc(-c3ccc(OC)c(OC)c3)cc(C(F)(F)F)n2)cc1 -9.38%
COc1cccc(/C=C(\C#N)c2nc3ccc(C)cc3[nH]2)c1 -11.1%
Cn1c(=O)c2c(SCC(=O)NCC3CCCO3)nc(-c3ccccc3F)nc2n(C)c1=O (configuration not stated) -13.2%
CCOC(=O)c1ccc(NS(=O)(=O)c2cc3c(cc2C)n(C)c(=O)c(=O)n3C)cc1 -7%
CCCSc1ncc(Cl)c(C(=O)Nc2ccc(CC)cc2)n1 -9.33%
Oc1cccc(Nc2nc(-c3ccccc3)nc3ccccc23)c1 -15.3%
CCN(CCCNC(=O)c1cc2cc3cc(OC)ccc3nc2s1)c1ccccc1 -12.5%
Cc1ccc(CNC(=O)CSc2nc3ccsc3c(=O)n2-c2ccc(C(=O)O)cc2)cc1 -6.58%
Cc1cc(NC(=O)c2ccc(Cl)c(Cl)c2)ccc1-c1cc2ccccc2oc1=O -15.3%
COc1ccc(NC(=O)Cn2c(=O)n(-c3ccccc3)c(=O)c3ccc(C(=O)NCc4ccc5c(c4)OCO5)cc32)cc1 2.27%
CCOC(=O)C1CCC(CN(Cc2c(Cl)cccc2Cl)S(=O)(=O)c2ccc(F)c(C)c2)CC1 (configuration not stated) -7.93%
CCOC(=O)c1c(C)[nH]c(C)c1S(=O)(=O)N(C)CC(=O)Nc1cc(Cl)ccc1OC -8.68%
COc1cccc(NC(=O)CCNS(=O)(=O)c2ccc3c(c2)CCCC(=O)N3)c1 -16.5%
O=C(CSC1=Nc2ccccc2C2=NC(CCC(=O)NC3CCCCC3)C(=O)N12)Nc1cccc(Cl)c1 (configuration not stated) -24.4%
COc1ccc(-c2cnc(NCc3ccc(C)cc3)n2C)cc1 9.23%
O=C(CSc1nc(-c2ccccc2)cc(=O)[nH]1)Nc1ccccc1F -26.1%
CC1=C(C(=O)Nc2ccc(C)c(C)c2)C2(CCCCCC2)OC1=O 0.362%
Cc1ccc2[nH]c(=O)c3cc(C(=O)N4CCN(c5ccccc5F)CC4)sc3c2c1 -8.88%
COc1cc(C2NC(=O)N(C)C3=C2C(=O)N(c2ccccc2)C3)ccc1O (configuration not stated) -12.1%
CCC(C)NC(=O)c1sc2nc(C)c(C(=O)Nc3ccc(C)cc3C)c(-c3ccc(Br)cc3)c2c1N (configuration not stated) -12.2%
COc1ccccc1NC(=O)CSc1oc(-c2cccs2)nc1S(=O)(=O)c1ccc(C)cc1 -26.5%
CCN(CC)c1nc2c(S(=O)(=O)c3ccc(C)cc3)nnn2c2ccsc12 -0.934%
O=C(NCc1ccccc1)c1cccc(NC(=O)N2CCSc3ncccc32)c1 -9.3%
COc1ccccc1CNC(=O)c1nn(-c2ccc(C)cc2)c(=O)c2c1c1ccccc1n2C -9.3%
COc1ccc(CCNC(=O)CSc2nc3ccccc3nc2Cc2ccc(C)cc2)cc1OC 3.32%
Cc1cccc(CSc2ncc(Cl)c(C(=O)Nc3sc4c(c3C#N)CCCC4)n2)c1 5.96%
Cc1ccccc1NC(=O)c1ccccc1NC(=O)c1ccccc1F -8.17%
COc1ccc(-c2nc3ccc(C(=O)NCc4ccccc4)cc3nc2-c2ccc(OC)cc2)cc1 -0.389%
O=C(CN1C(=O)COc2ccc(S(=O)(=O)N3CCCCC3)cc21)NCCc1ccc(Cl)cc1 -13.2%
CCCSc1nnc2c(n1)OC(CC)N(C(C)=O)c1ccccc1-2 (configuration not stated) -12.9%
CCn1ccc2cc(S(=O)(=O)N3CCC(C(=O)NCc4ccc(OC(C)C)cc4)CC3)ccc21 -5.69%
O=C(Nc1nnc(S(=O)(=O)N2CCCC2)s1)c1ccccc1Cl -13.8%
COc1ccc(N2CCN(S(=O)(=O)c3c(C)nc4sc(C)cn4c3=O)CC2)cc1 -1.87%
Cc1cccc(OCC(=O)NCc2ccc3c(c2)CCN3C(=O)c2ccccc2)c1 -5.54%
COc1ccc(Cc2nc3c4cnn(-c5ccccc5Br)c4ncn3n2)cc1 -11.7%
CC1=C(c2ccc(C)c(C)c2)S(=O)(=O)N(Cc2ccc(C(=O)NCc3ccc(C)cc3)cc2)C1=O -19%
CCOc1ccccc1CNC(=O)Cn1nc(C)c2nn(-c3ccc(Cl)cc3)c(C)c2c1=O -4.87%
COC(=O)COc1ccc(Oc2nc(NC(C)(C)C)nc(N3CCOCC3)n2)nn1 -0.237%
Cc1c(C(=O)NCc2ccc(F)cc2)sc2nc3n(c(=O)c12)CCC3 -19.8%
COc1ccc(-c2ccc(=O)n(CC(=O)Nc3ccc(N(C)C)cc3)n2)cc1 5.11%
O=C(Cn1nc(C(F)(F)F)c2c1CCCC2)Nc1ccc(F)c(Cl)c1 -3.88%
O=C(Cn1c(=O)oc2cc(S(=O)(=O)NCc3ccccc3)ccc21)NCc1ccc(F)cc1 -15.4%
COc1ccc(/C=C/C(=O)Nc2ccc(Cl)c(Cl)c2)cc1OC -5.29%
CCOc1ccc(NC(=O)c2cc(CN3CCCC3)on2)cc1 -7.53%
COc1ccc(OC)c(NC(=O)Cn2cc(C(=O)c3cccs3)c3ccccc32)c1 -23.1%
CSc1ccc(C2c3c(oc4ccc(F)cc4c3=O)C(=O)N2c2ccc(C)cn2)cc1 (configuration not stated) -15.5%
CCOc1ccc2oc(=O)cc(CN3CCN(C(=O)c4ccc(Cl)cc4)CC3)c2c1 4.41%
CCCCc1nn2c(=O)cc(COC(=O)CNC(=O)c3ccccc3C)nc2s1 12.2%
Cc1cccc(N(C)C(=O)C2CCN(S(=O)(=O)c3cccc4nonc34)CC2)c1 -7.45%
Cc1ccc2nc(Nc3ccc(Br)cc3)nc(-c3ccccc3)c2c1 -9.76%
Cc1c(NC(=O)c2cc3ccccc3o2)cccc1-c1nc2ccccc2o1 -12.4%
CCc1cccc(CC)c1NC(=O)Cc1csc(C)n1 -4.44%
CCN(CC)CCOc1ccc(C(O)(Cc2ccc(Cl)cc2)c2ccc(C)cc2)cc1 (configuration not stated) -14.4%
Cc1cc(Nc2cccc(F)c2)n2nc(-c3ccco3)nc2n1 -8.27%
CCC(=O)N1CCc2cc(CNS(=O)(=O)c3ccc(Cl)s3)ccc21 -7%
Cc1cccc(CN2C(=O)c3ccccc3Sc3ccc(C(=O)NCCc4ccccc4)cc32)c1 -14.3%
Cc1ccc(Cl)cc1NC(=O)N1CCc2cc(S(=O)(=O)N3CCC(C)CC3)ccc21 -16.7%
O=C(Nc1nnc2n1CCS2)c1ccccc1 -0.737%
Cc1cccc(-n2ncc3c(N4CCN(CCO)CC4)ncnc32)c1 -13%
COC(=O)c1ccc2c(=O)n(CCCCCC(=O)NC(C)C)c(=O)[nH]c2c1 -14.8%
O=C(NCc1ccccc1)N1CCc2c(sc3c2CCCC3)C1c1ccccc1 (configuration not stated) -13.1%
Cc1cc(C)cc(NC(=O)CCS(=O)(=O)c2ccc3c(c2)oc(=O)n3C)c1 -16.5%
CCOc1ccc(/C=C/c2nc3ccccc3n2S(=O)(=O)c2cccc(Cl)c2)cc1 -16.6%
COc1ccccc1CNC(=O)c1ccc(Nc2nc3ccccc3n3nnnc23)cc1 -10.9%
CCOC(=O)c1cc(-c2ccc(OC)cc2)n(CCC(=O)Nc2ccc(OC)cc2OC)c1C -0.248%
CCOc1ccc(C(=O)Nc2ccc3nc(SCC(=O)N(C)c4ccccc4)sc3c2)cc1 -21.3%
CC(C)c1ccc(/C=C(\C#N)c2nc(-c3cc4ccccc4oc3=O)cs2)cc1 -15.7%
CC1CCN(S(=O)(=O)c2ccc3nc(Nc4cccc(C(F)(F)F)c4)ccc3c2)CC1 -21.1%
COc1cccc(-c2nc(SCC(=O)NC3CCCC3)c(-c3ccc(F)cc3)[nH]2)c1 -18.2%
COc1cc(NC(=O)CCc2c(C)nc3c4c(C)cc(C)nc4nn3c2C)cc(OC)c1 -0.324%
Cc1cc(C)cc(NC(=O)CCCn2nc(C)c3c(C)n(-c4ccccc4)nc3c2=O)c1 -13.2%
COc1ccc(NC(=O)CN(c2ccccc2OC)S(C)(=O)=O)c(OC)c1 -10.5%
CCOC(=O)C1(C)C=C(Nc2cccc(C)c2)C(=O)N1c1ccccc1 (configuration not stated) -4.8%
COc1cc(-c2nnc(SCC(=O)Oc3ccc(C)cc3C)o2)cc(OC)c1OC -1.69%
Cc1ccc(CNC(=O)c2nc(S(=O)(=O)Cc3ccc(C)cc3)ncc2Cl)cc1 -14.5%
CCOC(=O)CCn1cnc2onc(-c3ccccc3Cl)c2c1=O -10.5%
CCOc1ccccc1NC(=O)C1=C(C)Nc2ncnn2C1c1ccccn1 (configuration not stated) -6.59%
COc1ccc(C2=C(C)C(=O)N(Cc3ccc(C(=O)Nc4ccc(C)c(C)c4)cc3)S2(=O)=O)cc1 -24.2%
COc1cc(Cl)c(C)cc1NS(=O)(=O)c1c(C)nc2sccn2c1=O -11.3%
COC(=O)c1ccc(Nc2ncnc3c2cnn3-c2ccccc2)cc1 7.52%
COc1cc(OC)cc(-c2cc3nc(C)c(CCC(=O)Nc4ccc(F)c(Cl)c4)c(C)n3n2)c1 -20.3%
CC(C)c1ccc(NC(=O)C(NS(=O)(=O)c2ccc3c(c2)CCC(=O)N3)c2ccccc2)cc1 (configuration not stated) -21%
CCOCN(C(=O)Cn1c(CC(C)C)nc2ccccc21)c1c(C)cccc1CC -14.3%
CCOc1ccccc1Nc1ncnc2c1c(-c1ccccc1)cn2-c1ccc(OC)cc1 0.349%
Cn1c(=O)cc(OCC(=O)N2CCN(c3ccc(F)cc3)CC2)c2ccccc21 -9.89%
O=C1c2[nH]nc(-c3ccccc3O)c2C(c2ccc(Cl)cc2)N1CCc1ccccc1 (configuration not stated) -20.7%
Cc1ccc(-c2cn3cccnc3n2)cc1NC(=O)Cc1ccccc1 13.2%
O=S(=O)(c1ccccc1)c1nc(-c2ccccc2)oc1N1CCN(c2cccc(Cl)c2)CC1 -8.07%
CCc1ccc(NC(=O)COCc2cc(-c3ccc(F)cc3)on2)cc1 -8.55%
O=C(CSCc1cnn(-c2ccccc2)c1-n1cccc1)NCc1ccccc1Br -2.56%
Cc1cc(C)cc(NC(=O)c2ncn(-c3ccccc3)n2)c1 -15.9%
Cc1c(Cl)cccc1NC(=O)C(C)N(c1ccccc1)S(C)(=O)=O (configuration not stated) -16.1%
